The supplement of paper PMC3334620
Whole data set: some 33,000 sequences, median “E-score (-0.5 to 0.5)” near -0.054, cut for the highest 2% near 0.35. The list shows a part of the results.

target: T1, Stb5 (UniProt P38699); assay: PBM E-score (8-mer binding enrichment) (E-score (-0.5 to 0.5)); higher = stronger / more preferred TF binding; most listed sequences are background and not binding sites; details: protein concentration: 200 nM; construct: GST-full length
T1 sequence: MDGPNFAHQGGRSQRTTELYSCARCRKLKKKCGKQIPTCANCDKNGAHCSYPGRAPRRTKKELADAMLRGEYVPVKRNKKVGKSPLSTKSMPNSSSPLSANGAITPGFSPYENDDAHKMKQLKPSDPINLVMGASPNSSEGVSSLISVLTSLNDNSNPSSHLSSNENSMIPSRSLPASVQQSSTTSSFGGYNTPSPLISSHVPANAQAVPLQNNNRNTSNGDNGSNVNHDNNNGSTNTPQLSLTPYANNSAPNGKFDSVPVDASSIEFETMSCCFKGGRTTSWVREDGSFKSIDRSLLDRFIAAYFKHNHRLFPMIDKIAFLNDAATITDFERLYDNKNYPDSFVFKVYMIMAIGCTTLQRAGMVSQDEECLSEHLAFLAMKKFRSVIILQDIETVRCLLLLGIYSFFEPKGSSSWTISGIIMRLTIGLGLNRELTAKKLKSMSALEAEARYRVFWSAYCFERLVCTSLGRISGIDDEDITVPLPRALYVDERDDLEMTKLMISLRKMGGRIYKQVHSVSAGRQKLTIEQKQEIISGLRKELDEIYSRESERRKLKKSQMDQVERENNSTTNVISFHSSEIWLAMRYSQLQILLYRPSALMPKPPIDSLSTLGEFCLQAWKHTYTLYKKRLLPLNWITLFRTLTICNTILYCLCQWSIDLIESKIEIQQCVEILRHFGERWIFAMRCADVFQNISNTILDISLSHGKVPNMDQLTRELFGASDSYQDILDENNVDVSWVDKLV
In short: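 Full-length yeast transcription factors or their DNA-binding domains, GST-tagged and expressed with PURExpress, were applied at about 100-200 nM to universal all-10-mer Agilent arrays. These arrays had been made double-stranded by primer extension on fresh or once-stripped slides. Detection used fluorescent anti-GST, normalisation used masliner, and E-scores for ungapped eight-base words pooled with reverse complements came from the Universal PBM Analysis Suite.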

Sequence	PBM E-score
CGGTCAAC	0.152
GACAACCA	-0.00208
TAGCGCCA	0.00668
ACTTCAGA	-0.112
AGACGCCG	0.399
GAAGCCGA	0.0721
TAGGGATA	-0.0265
GGCATCGA	-0.171
CGGCCCAC	-0.00644
CCCTCCGC	0.0578
AATACACA	-0.143
ATGTGGAA	-0.129
GGAATAAC	0.177
CTGGTTAA	-0.102
CCTCTTAG	0.0232
CGGCACCC	0.11
CCGGTCAA	0.26
CATCGCGA	0.00349
CAAGACTC	-0.152
AGCTCAAA	-0.0103
GGAGGAAC	-0.0563
CGGTCAAA	0.24
ATAAGGCG	-0.00531
AGGCTTGA	-0.263
ATCTCAAG	-0.22

Sequence	PBM E-score
CGACGTGA	0.0691
ATAGTTGC	-0.0188
CAGGTGGC	-0.216
TACAGAAA	-0.202
CGTAGTCA	-0.211
CGACCTCC	0.0816
ACTTGAAT	-0.205
ACCAGCCG	0.00985
GAGGATAC	-0.184
CCAGTTCA	-0.0663
AATCATTA	-0.121
CCTCAGTA	-0.247
AGTCAATG	-0.0736
CTAAATAG	-0.0747
GATCGGGA	0.251
CCTGTGTC	0.0263
AGGGGAAG	-0.27
CGTAGTAC	0.0304
ATCAGCGC	0.231
GCCTCCGA	0.124
AGACACTG	-0.3
CCGCTCAA	0.219
CTGCATCA	-0.327
CCTACTTC	-0.244
AAAGGGGT	-0.188

Sequence	PBM E-score
AACAACGG	0.24
ATATACAC	-0.0737
GTACCGAA	0.145
ACCGTACC	0.109
GGGATCGA	-0.029
ACGAATTC	-0.1
CGCACCAA	0.0669
CTGGGAGA	-0.253
CAGCCCCC	-0.277
AGCTGGGG	-0.232
CCCCCGGC	0.203
GATCCCGA	0.247
ATATGGAG	0.207
GTAAGGCA	-0.15
AGGTCCCG	0.196
GTCCATCA	-0.0772
CACGGCTG	-0.146
GACAACTC	-0.0305
CCATGGTC	-0.179
ACCCCCTC	-0.265
ATGCAGAG	-0.227
ATGGCGAA	-0.099
GGCTGAGA	-0.116
CGTCCTCA	-0.0976
AAAAACAA	0.151

Sequence	PBM E-score
AGCCTTTG	-0.217
ACAGCCGA	0.0858
AACGGAAT	0.209
CGAGCACA	-0.0834
CGCGCTAA	0.0608
GAATGTAA	0.0823
GCCCGGCC	0.233
ATTCCAAC	-0.209
CGTGCGTA	0.00379
GCCAACCA	0.00482
AGATTAGG	-0.0761
AGCCGGAA	0.186
AAACATTC	-0.247
GGCGGATA	0.257
CGACGACC	0.197
AAGGTTAA	-0.218
CGCCTTCC	0.0626
ACGTAGCA	-0.123
CCACATTC	-0.0853
GCAGATCC	-0.0324
AGGGGGCC	-0.234
CATTAGCA	-0.0385
AGGTGACT	-0.279
CTTTCCGC	0.0536
TGACCTAA	-0.117

Sequence	PBM E-score
GATAGACA	-0.354
CCAGTCGG	0.259
ATCCTGTG	-0.173
ATTAGTAC	0
AAGTATGG	-0.13
ATGGGCGG	0.265
AATAATTA	-0.154
CTAAGATC	0.00661
GCGTCCGA	0.191
GGTAGGTA	-0.00892
AGCGTTTC	-0.067
CCCAATAG	-0.275
AGATGAGG	-0.159
AGGAGTGC	-0.0148
GAAACCTC	-0.0112
ACAGAAAC	-0.122
CGTATCTA	-0.0931
CAGGTAAC	-0.158
CCCTCAAC	-0.125
CGATATCG	0.143
CCATGTAG	0.0296
ATCTGACA	-0.302
AGCTCTCG	-0.155
AATGCCCT	-0.168
AAGAAAGA	-0.0812

Sequence	PBM E-score
TGATCGCA	-0.14
ACGGTCGG	0.313
CTAGAAAC	-0.268
GGTGCCGA	0.292
GAATATAA	-0.115
AGGAGGCC	-0.207
CTCGGGTC	0.0646
CGGTAATA	0.457
GATACTAC	0.0343
ATAGCTTC	-0.0602
AGTAACCC	-0.0479
AAGCCATT	-0.112
AACTATTG	-0.125
TTACGAAA	-0.0991
CCCAAAGC	-0.0121
AGTGACAA	-0.26
CCTCTCCG	-0.171
TCACGACA	-0.207
ACGACTCG	-0.226
AGTAGGCA	-0.192
AAGACGCT	-0.221
TATGAACA	-0.124
GCGAGGCA	-0.151
AAATGGAA	-0.261
ATTTAATA	0.0634

Sequence	PBM E-score
GCGCTACC	0.071
AAGAAGCA	-0.0294
TTATCAAA	-0.03
CGAGAAAA	-0.00605
CTAATCGC	-0.0503
AGTAATAT	0.126
CTCAGACC	-0.129
GTGAGGTA	-0.158
CAGCCACC	-0.0335
CAGGGCTC	-0.306
CACAAAAG	0.0345
AAAACTGA	-0.0956
GATGGCAC	0.0752
AGTCTGAC	-0.241
GGTGGGTA	0.126
CGCGACCA	0.0407
CACGATTA	-0.0734
ATCCTTCG	0.106
CGTAGCGA	0.067
ACTCGAAT	-0.174
TCAGCGAA	-0.125
CAGCTTCA	-0.212
ATTCTCCG	0.341
AAACACGA	-0.121
AGATTATA	0.0725

Sequence	PBM E-score
ATTTTGTA	-0.0499
CACACGAG	-0.298
CCGCAAGG	0.182
ATTGCGGA	0.0931
GAGTCCAC	0.0155
CTAACGCA	0.118
CCCCAGAC	-0.217
ACGCAACG	-0.0532
ATATAGAC	-0.0158
CACCGTAA	0.115
ACTCAAAA	-0.0518
CACCTCGA	-0.147
AGATGGAT	-0.192
AGTCGTTC	-0.25
ATTAGAGG	-0.0978
ATTCTTAC	-0.0134
CCCAGGTC	-0.149
CCTGCGCC	-0.0579
TCACTGAA	-0.0284
AAAACTCG	-0.0572
CATCTCTC	0.0857
CCTCGACA	-0.246
CTGTCAGA	-0.207
CTACAGTA	-0.125
CTGCAATC	-0.0884

Sequence	PBM E-score
ATCCGTAG	0.0937
TAAGATGA	-0.202
GACAATAC	0.0556
ATGGAGAA	-0.116
AGAACGGA	0.267
AGTCCGAC	0.436
GGAAATAC	0.162
AGCGTTAC	-0.173
AGATCTCA	-0.223
GCTCGATA	-0.00732
CGGGGTCC	0.221
GAGAACGA	-0.21
AAGGGTCG	0.00304
CATCGACG	0.0157
AGGCATTA	0.00131
GGCTGTAA	-0.129
GTAGTGAC	0.0694
CGCATCCA	0.137
TCTCTGCA	-0.11
AAGTTGTA	-0.189
CCACATCG	-0.0333
CGGGGATA	0.478
ACGCCACC	-0.0994
ATAATTTG	0.0923
AAACAACA	-0.264

Sequence	PBM E-score
CGATTATC	0.111
TCTGAAGA	-0.164
ATAGCTAC	-0.279
CCCGTTAA	0.129
ACAATAAA	-0.0791
ACGACGCT	0.0232
GCTCGAGA	-0.227
AACATTGG	-0.213
AGGTGTTA	0.381
AGACATCA	-0.0953
ACTGTCAC	-0.1
CAGGGTTA	-0.101
CGACGTCC	0.0474
GTTGTACA	0.111
GGCCATGA	-0.0728
GCTTATGA	-0.151
GCCGTTGA	0.164
CTCTCCAA	0.0654
CCGTTGAG	0.16
ATGGCACA	-0.0455
TCTTTTAA	-0.014
CCGCGGGA	0.349
ACCGTAAG	0.27
ACTAACTA	-0.0974
ATGGGCTA	-0.306

Sequence	PBM E-score
CCGGAGGA	0.289
AAGTCTCG	-0.119
CAAAAGTA	-0.192
GGTTTTTA	0.102
AGTTGGGC	-0.17
GACCGAAA	0.23
CCTACGAC	-0.229
CGCTGAGC	-0.103
TCGTAAAA	-0.0435
CCAACCAA	-0.0723
ACACGGCC	0.116
CAGCCCTC	-0.0803
AGGCGGTG	0.342
ACTAGCCG	-0.0412
CCTCTGCA	-0.214
CTATGGCA	-0.142
TCATGCCA	-0.253
CGCGCAAC	0.09
ATGGACCA	-0.144
ATCCGTGC	0.062
GTGTGTTA	-0.00114
AATCTAAT	-0.0604
CGGCGGAA	0.348
CTAGAGTA	-0.0292
AATTCGTC	-0.107

Sequence	PBM E-score
ATCAATAG	-0.165
AACCCTTC	-0.131
CTCCCTCA	-0.151
ATAGGACA	-0.148
CCACGTTA	-0.198
AAATGGGG	-0.0385
ACTATCCA	0.0766
CCCGATGC	0.314
GCCCTGGA	0.124
ACACAAAC	0.0561
ACACCAGT	-0.186
AGAACCCA	-0.339
CATAGGAA	-0.0944
GGCTATGA	-0.0374
TATTTGGA	-0.157
GAGGACCA	-0.254
AGTCCTCC	-0.0869
CCACGAGA	-0.203
CCCAGACA	-0.23
GCACTGAC	-0.002
GAGGGACA	-0.148
ATGTTAAT	-0.107
CCAGCCGC	-0.062
AGATTAAA	0.00141
CCATTGAC	-0.00058

Sequence	PBM E-score
ATTCTAAA	-0.0797
TCCGTTCA	0.0759
AGAGTACG	-0.176
AACGTAAT	-0.222
AGGCTCGC	0.0633
CGAAGGAA	-0.188
ATAAGGGA	-0.229
ATCGGAGC	0.324
CTTTTAAA	0.178
ATTACCTG	-0.0469
CCGCAGCA	0.246
AAGGCCGT	0.421
ACCGCATG	0.172
AGTGTTAC	-0.0686
AGGCGCCG	0.245
ACGCTTGA	-0.115
AAATGGCA	-0.114
GTAGTATA	0.129
AAGGCTTA	-0.203
CATGCTCG	-0.183
ATGGGACG	-0.115
CAAAGGGC	-0.0898
AGTTTGAT	-0.0389
CAACCCCA	-0.221
CAAAGTGA	-0.131

Sequence	PBM E-score
CAGACACC	0.0808
CGGTCTCC	0.195
ACGATACG	-0.389
CGAAGGGA	-0.0862
GGCAACGA	-0.0788
GAATCGGA	0.241
CCCGACCG	0.355
CTAGTCCA	-0.00206
ACTGACCC	-0.00168
CGGGTCTA	0.412
AGTAGTGG	-0.202
AATTAGAA	0.00026
ACATGTCA	-0.148
AGGCGGGC	0.275
ACCCGTAC	0.0674
ATAAAGGC	0.128
AGAACTCA	-0.191
AGTGATCA	-0.104
AGACGTAT	-0.172
